# From the supplement of paper PMC3334620
# In all, about 33,000 sequences were measured (“E-score (-0.5 to 0.5)”: median about -0.016, highest 2% from about 0.31 on). The list shows a part of the results.
# Target: Cst6 (UniProt P40535)
# Experiment: PBM E-score (8-mer binding enrichment) (E-score (-0.5 to 0.5)); higher = stronger / more preferred TF binding; most listed sequences are background and not binding sites
# Conditions: protein concentration: 200 nM; construct: GST-DNA-binding domain
# Procedure, shortened: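 E-scores (a modified Wilcoxon-Mann-Whitney statistic) were assigned by the Universal PBM Analysis Suite to every ungapped eight-base word pooled with its reverse complement. The input came from universal all-10-mer Agilent arrays made double-stranded by primer extension and probed with GST-tagged yeast transcription factors at about 100-200 nM. Fluorescent anti-GST detected bound protein, and masliner normalised the scans.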
row,Sequence,PBM E-score
1,AACGCTCC,-0.00595
2,CAATCTGG,-0.096
3,CACATTAA,-0.00666
4,TAGATCAA,0.0563
5,AAAGTGAT,0.199
6,AAAGCGTA,-0.0932
7,GCACGATA,0.0369
8,ACTAAAGC,0.0156
9,AGCCTGAC,-0.0605
10,GCATGTAA,0.0218
11,ATCAGGCA,-0.0532
12,ACCTCTCT,-0.245
13,AAACAGCC,-0.0862
14,GCTACGAA,0.0568
15,ATGATTGG,0.0663
16,ACTCATCC,0.142
17,AGTTACTA,0.0861
18,CGATCAAG,-0.116
19,GACTAGGA,-0.176
20,CTGGCCTA,-0.214
21,GAGCAACA,-0.118
22,CACGGCTA,0.253
23,TCGGACCA,-0.145
24,CTATGACC,0.193

row,Sequence,PBM E-score
1,AACTATCG,-0.12
2,GCGAGATA,0.0372
3,ACGAGAGC,-0.0859
4,AGGGCTAA,0.015
5,ACTAGCTA,-0.0397
6,CGCTTCAA,-0.0939
7,CCTTTCGA,-0.0836
8,GCGCTTTA,0.154
9,AGTTCTTC,0.118
10,ACTACACG,0.00623
11,ATCTTTTG,0.103
12,AGCGGGGG,-0.403
13,CAGGCGAA,0.0088
14,AATAGTAA,0.135
15,AAGTTGCC,-0.143
16,ATGGCCCG,-0.113
17,AAGGCTCA,0.0248
18,AGGGGTCA,-0.12
19,CATTCGTA,0.114
20,TACTCTAA,0.0112
21,ACATCATG,0.409
22,GCTGACAC,-0.085
23,CGAAGACA,-0.0389
24,AGGCACTG,0.0504

row,Sequence,PBM E-score
1,CCTGCAAG,-0.196
2,TGACGGAA,0.432
3,AGAGCCCT,-0.213
4,AACGCGCT,-0.111
5,CCACTGGC,-0.244
6,GCAAATTA,0.125
7,CGGCGAGC,0.1
8,GCGATAAA,0.0621
9,ACTGGGAG,-0.206
10,CGCTCCCA,-0.219
11,CCTAACTA,0.0863
12,CTACACAA,0.0767
13,GGCACCCA,-0.122
14,ATAGCCGG,-0.102
15,CCTCCATA,-0.0258
16,AAAGCGTT,-0.116
17,CCCGTAGG,-0.244
18,CGAGTTAG,-0.036
19,GACAGGGA,-0.162
20,GACTGCCC,-0.228
21,GATGGAGC,-0.201
22,AAGGCTAA,0.0771
23,GAAAGCAC,0.122
24,ATGAATCG,0.04

row,Sequence,PBM E-score
1,GCAGTGGA,0.0181
2,ACACTTAG,0.0896
3,AGCGGGAC,-0.211
4,GATTACGA,0.364
5,GCGTCGTA,0.137
6,CCTGCAGA,-0.081
7,AACCGCCC,-0.292
8,CACAATGC,-0.0378
9,GTTTGTAA,0.0409
10,CCCAGATC,-0.32
11,ACATTCTG,0.0657
12,CAAGAGTC,-0.213
13,GCATAACC,-0.217
14,ATACCCGG,-0.215
15,ATGGAAAC,-0.025
16,CACTGGGG,-0.271
17,CAGACAAA,0.136
18,GGTGTTCA,0.00946
19,AGCAGCAT,-0.207
20,CGAGCTGA,-0.00935
21,AGGTGACC,0.046
22,ACTACTCC,-0.128
